Data on eleven molecules can be found in the supplement of paper PMC12423691.

B1: GLIS2, Q9BZE0 (protein)
chain: MHSLDEPLDLKLSITKLRAAREKRERTLGVVRPRALHRELGLVDDSPTPGSPGSPPSGFLLNSKFPEKVEGRFSAAPLVDLSLSPPSGLDSPNGSSSLSPERQGNGDLPPVPSASDFQPLRYLDGVPSSFQFFLPLGSGGALHLPASSFLTPPKDKCLSPDLPLPKQLVCRWAKCNQLFELLQDLVDHVNDYHVKPEKDAGYCCHWEGCARHGRGFNARYKMLIHIRTHTNEKPHRCPTCSKSFSRLENLKIHNRSHTGEKPYVCPYEGCNKRYSNSSDRFKHTRTHYVDKPYYCKMPGCHKRYTDPSSLRKHIKAHGHFVSHEQQELLQLRPPPKPPLPAPDGGPYVSGAQIIIPNPAALFGGPGLPGLPLPLAPGPLDLSALACGNGGGSGGGGGMGPGLPGPVLPLNLAKNPLLPSPFGAGGLGLPVVSLLAGAAGGKAEGEKGRGSVPTRALGMEGHKTPLERTESSCSRPSPDGLPLLPGTVLDLSTGVNSAASSPEALAPGWVVIPPGSVLLKPAVVN
B2: ZNF660, Q6AZW8 (protein)
chain: MRRKTRNFKHKTVKDNKVLTEGSDQESEKDNSQCCDPATNERVQAEKRQYVCTECGKAFSQSANLTVHERIHTGEKPYKCKECGKAFSHSSNLVVHRRIHTGLKPYTCSECGKSFSGKSHLIRHQGIHSGEKTYECKECGKAFSRSSGLISHHRVHTGEKPYSCIECGKAFSRSSNLTQHQRMHRGKKVYKCKECGKTCGSNTKIMDHQRIHTGEKPYECDECGKTFILRKTLNEHQRLHRREKPYKCNECGKAFTSNRNLVDHQRVHTGEKPYKCNECGKTFRQTSQVILHLRTHTKEKPYKCSECGKAYRYSSQLIQHQRKHNEEKETS
B3: TFDP1, Q14186 (protein)
chain: MAKDAGLIEANGELKVFIDQNLSPGKGVVSLVAVHPSTVNPLGKQLLPKTFGQSNVNIAQQVVIGTPQRPAASNTLVVGSPHTPSTHFASQNQPSDSSPWSAGKRNRKGEKNGKGLRHFSMKVCEKVQRKGTTSYNEVADELVAEFSAADNHILPNESAYDQKNIRRRVYDALNVLMAMNIISKEKKEIKWIGLPTNSAQECQNLEVERQRRLERIKQKQSQLQELILQQIAFKNLVQRNRHAEQQASRPPPPNSVIHLPFIIVNTSKKTVIDCSISNDKFEYLFNFDNTFEIHDDIEVLKRMGMACGLESGSCSAEDLKMARSLVPKALEPYVTEMAQGTVGGVFITTAGSTSNGTRFSASDLTNGADGMLATSSNGSQYSGSRVETPVSYVGEDDEEDDDFNENDEDD
B4: FOSL2, P15408 (protein)
chain: MYQDYPGNFDTSSRGSSGSPAHAESYSSGGGGQQKFRVDMPGSGSAFIPTINAITTSQDLQWMVQPTVITSMSNPYPRSHPYSPLPGLASVPGHMALPRPGVIKTIGTTVGRRRRDEQLSPEEEEKRRIRRERNKLAAAKCRNRRRELTEKLQAETEELEEEKSGLQKEIAELQKEKEKLEFMLVAHGPVCKISPEERRSPPAPGLQPMRSGGGSVGAVVVKQEPLEEDSPSSSSAGLDKAQRSVIKPISIAGGFYGEEPLHTPIVVTSTPAVTPGTSNLVFTYPSVLEQESPASPSESCSKAHRRSSSSGDQSSDSLNSPTLLAL
B5: TBX5, Q99593 (protein)
chain: MADADEGFGLAHTPLEPDAKDLPCDSKPESALGAPSKSPSSPQAAFTQQGMEGIKVFLHERELWLKFHEVGTEMIITKAGRRMFPSYKVKVTGLNPKTKYILLMDIVPADDHRYKFADNKWSVTGKAEPAMPGRLYVHPDSPATGAHWMRQLVSFQKLKLTNNHLDPFGHIILNSMHKYQPRLHIVKADENNGFGSKNTAFCTHVFPETAFIAVTSYQNHKITQLKIENNPFAKGFRGSDDMELHRMSRMQSKEYPVVPRSTVRQKVASNHSPFSSESRALSTSSNLGSQYQCENGVSGPSQDLLPPPNPYPLPQEHSQIYHCTKRKEEECSTTDHPYKKPYMETSPSEEDSFYRSSYPQQQGLGASYRTESAQRQACMYASSAPPSEPVPSLEDISCNTWPSMPSYSSCTVTTVQPMDRLPYQHFSAHFTSGPLVPRLAGMANHGSPQLGEGMFQHQTSVAHQPVVRQCGPQTGLQSPGTLQPPEFLYSHGVPRTLSPHQYHSVHGVGMVPEWSDNS
B6: BATF2, Q8N1L9 (protein)
chain: MHLCGGNGLLTQTDPKEQQRQLKKQKNRAAAQRSRQKHTDKADALHQQHESLEKDNLALRKEIQSLQAELAWWSRTLHVHERLCPMDCASCSAPGLLGCWDQAEGLLGPGPQGQHGCREQLELFQTPGSCYPAQPLSPGPQPHDSPSLLQCPLPSLSLGPAVVAEPPVQLSPSPLLFASHTGSSLQGSSSKLSALQPSLTAQTAPPQPLELEHPTRGKLGSSPDNPSSALGLARLQSREHKPALSAATWQGLVVDPSPHPLLAFPLLSSAQVHF
B7: DLX4, Q92988 (protein)
chain: MTSLPCPLPGRDASKAVFPDLAPVPSVAAAYPLGLSPTTAASPNLSYSRPYGHLLSYPYTEPANPGDSYLSCQQPAALSQPLCGPAEHPQELEADSEKPRLSPEPSERRPQAPAKKLRKPRTIYSSLQLQHLNQRFQHTQYLALPERAQLAAQLGLTQTQVKIWFQNKRSKYKKLLKQNSGGQEGDFPGRTFSVSPCSPPLPSLWDLPKAGTLPTSGYGNSFGAWYQHHSSDVLASPQMM
B8: ZNF121, P58317 (protein)
chain: MAEIHNGGELCDFMENGEIFSEHSCLNAHMGTENTGDTYDCDEYGENFPMLHNSAPAGETLSVLNQCRKAFSLPPNVHQRTWIGDKSFEYSDCEEAFVDQSHLQANRITHNGETLYEQKQCGRAFTYSTSHAVSVKMHTVEKPYECKECGKFFRYSSYLNSHMRTHTGEKPYECKECGKCFTVSSHLVEHVRIHTGEKPYQCKECGRAFAGRSGLTKHVRIHTGEKPYECNECGKAYNRFYLLTEHFKTHTEEKPFECKVCGKSFRSSSCLKNHFRIHTGIKPYKCKECGKAFTVSSSLHNHVKIHTGEKPYECKDCGKAFATSSQLIEHIRTHTGEKPYICKECGKTFRASSHLQKHVRIHTGEKPYICNECGKAYNRFYLLTKHLKTH
B9: ZNF71, Q9NQZ8 (protein)
chain: MKELDPKNDISEDKLSVVGEATGGPTRNGARGPGSEGVWEPGSWPERPRGDAGAEWEPLGIPQGNKLLGGSVPACHELKAFANQGCVLVPPRLDDPTEKGACPPVRRGKNFSSTSDLSKPPMPCEEKKTYDCSECGKAFSRSSSLIKHQRIHTGEKPFECDTCGKHFIERSSLTIHQRVHTGEKPYACGDCGKAFSQRMNLTVHQRTHTGEKPYVCDVCGKAFRKTSSLTQHERIHTGEKPYACGDCGKAFSQNMHLIVHQRTHTGEKPYVCPECGRAFSQNMHLTEHQRTHTGEKPYACKECGKAFNKSSSLTLHQRNHTGEKPYVCGECGKAFSQSSYLIQHQRFHIGVKPFECSECGKAFSKNSSLTQHQRIHTGEKPYECYICKKHFTGRSSLIVHQIVHTGEKPYVCGECGKAFSQSAYLIEHQRIHTGEKPYRCGQCGKSFIKNSSLTVHQRIHTGEKPYRCGECGKTFSRNTNLTRHLRIHT
B10: NR4A2, P43354 (protein)
chain: MPCVQAQYGSSPQGASPASQSYSYHSSGEYSSDFLTPEFVKFSMDLTNTEITATTSLPSFSTFMDNYSTGYDVKPPCLYQMPLSGQQSSIKVEDIQMHNYQQHSHLPPQSEEMMPHSGSVYYKPSSPPTPTTPGFQVQHSPMWDDPGSLHNFHQNYVATTHMIEQRKTPVSRLSLFSFKQSPPGTPVSSCQMRFDGPLHVPMNPEPAGSHHVVDGQTFAVPNPIRKPASMGFPGLQIGHASQLLDTQVPSPPSRGSPSNEGLCAVCGDNAACQHYGVRTCEGCKGFFKRTVQKNAKYVCLANKNCPVDKRRRNRCQYCRFQKCLAVGMVKEVVRTDSLKGRRGRLPSKPKSPQEPSPPSPPVSLISALVRAHVDSNPAMTSLDYSRFQANPDYQMSGDDTQHIQQFYDLLTGSMEIIRGWAEKIPGFADLPKADQDLLFESAFLELFVLRLAYRSNPVEGKLIFCNGVVLHRLQCVRGFGEWIDSIVEFSSNLQNMNIDISAFSCIAALAMVTERHGLKEPKRVEELQNKIVNCLKDHVTFNNGGLNRPNYLSKLLGKLPELRTLCTQGLQRIFYLKLEDLVPPPAIIDKLFLDTLPF
B11: KLF11, O14901 (protein)
chain: MHTPDFAGPDDARAVDIMDICESILERKRHDSERSTCSILEQTDMEAVEALVCMSSWGQRSQKGDLLRIRPLTPVSDSGDVTTTVHMDAATPELPKDFHSLSTLCITPPQSPDLVEPSTRTPVSPQVTDSKACTATDVLQSSAVVARALSGGAERGLLGLEPVPSSPCRAKGTSVIRHTGESPAACFPTIQTPDCRLSDSREGEEQLLGHFETLQDTHLTDSLLSTNLVSCQPCLHKSGGLLLTDKGQQAGWPGAVQTCSPKNYENDLPRKTTPLISVSVPAPPVLCQMIPVTGQSSMLPAFLKPPPQLSVGTVRPILAQAAPAPQPVFVGPAVPQGAVMLVLPQGALPPPAPCAANVMAAGNTKLLPLAPAPVFITSSQNCVPQVDFSRRRNYVCSFPGCRKTYFKSSHLKAHLRTHTGEKPFNCSWDGCDKKFARSDELSRHRRTHTGEKKFVCPVCDRRFMRSDHLTKHARRHMTTKKIPGWQAEVGKLNRIASAESPGSPLVSMPASA

The list shows a part of the results. Binding of human transcription factors and regulators to the viral nucleoprotein by AlphaScreen, crude cell-free proteins, amounts not normalised, one pass. Fold of the Venus control; higher = more signal. No active / inactive call. Single-pass screen; sequences are the whole Swiss-Prot entries looked up by name.

This assay deals with nucleoprotein N of Crimean-Congo hemorrhagic fever virus. Put plainly: AlphaScreen luminescence signal relative to Venus negative control (fold); higher = stronger binding to CCHFV N. As for the experimental part:
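AlphaScreen binding of cell-free made, FLAG-GST-tagged human transcription factors and regulators (crude translation products) to biotinylated N protein; signal as fold of the FLAG-GST-Venus control. One pass.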
In turn, B1 returned an AlphaScreen luminescence signal of 1.77.
To B2 belongs 2.37; to B3, 2.74; to B4, 1.77.
Molecule B5 had an AlphaScreen luminescence signal of 3.91.
For the molecule B6, the AlphaScreen luminescence signal stood at 2.33.
B7 had an AlphaScreen luminescence signal of 2.7.
In the case of B8 it was 1.67; in that of B9, 1.35; in that of B10, 2.51.
With B11, the AlphaScreen luminescence signal was 1.91.
